Measured values reported in PubChem BioAssay AID485313 (National Center for Advancing Translational Sciences (NCATS), 2010).
Screen size: about 320,000 compounds; about 7,600 (2.4%) were called active. Inconclusive means that the source gave no clear call. Such entries were picked first, then a sample of the others. Calls follow the shape of the dose curve; as a rule, active = well fitted activation curve with a large enough effect; inconclusive = small, poorly fitted or top-dose-only effect; inactive = no such curve, though single readings can be large or run the other way. A potency beside an inconclusive call is a rough fit, not a confirmed value.

Assay: qHTS Assay for NPC1 Promoter Activators; also: nearly all actives have a fitted effect of over 60% in size;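 as to activation: reporter is driven by a mutant NPC1 promoter; % of control where 0% means no effect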
Settings: Huh7 NPC1 promoter luciferase reporter, 24 h; series mostly up to 9.22 µM; activation: at the top concentration
Outline: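 Quantitative HTS used a cell-based reporter: Huh7 cells stably bearing the NPC1 promoter upstream of luciferase were treated with compounds for 24 h, and promoter activation was read as luminescence.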
Potency is read from the fitted curve at half-maximal effect; tags tell the direction and shape of the fitted curve.

Potency, inconclusive:
CN(c1ccc(C(=O)NCCSC(C)(C)C)cc1)S(C)(=O)=O 3.55 µM [activator, partial curve], COc1ccc(Nc2ncnc3sc(C)cc23)cc1 3.16 µM [activator, single point], Oc1cccc(-c2nc3ccc4ccccc4c3c3c2CCC3)c1 3.16 µM [activator, partial curve], C=CCc1ccc(OCc2ccc(C(=O)O)o2)c(OC)c1 0.316 µM [activator, partial curve], CC(C)(C)c1ccc(C(=O)Nc2ccc(C=C(C#N)C#N)cc2)cc1 0.398 µM [activator, full curve], COc1ccc(-n2c(C)cc(/C=C3/SC(=S)N(C)C3=O)c2C)cc1 5.62 µM [activator, single point], CCSc1nnc(NC(=O)c2ccc(Br)s2)s1 2.82 µM [activator, partial curve], O=C(c1ccc2c(c1)OCO2)N1CCc2ccccc21 4.47 µM [activator, single point], C=CCOc1ccccc1/C=N/NC(=O)c1ccc(Cl)cc1Cl 3.16 µM [activator, single point], Cc1ccc(/C=N/c2sc3c(c2C#N)CCC3)s1 5.62 µM [activator, single point], O=C(O)c1cccc(N/N=C/c2cccs2)c1 0.0891 µM [activator, full curve, poor fit], CN(Cc1ccccc1)C(=O)CCC(=O)N(C)Cc1ccccc1 3.98 µM [activator, partial curve], O=C(/C=C\c1cccs1)c1c(O)ccc2ccc(=O)oc12 3.98 µM [activator, partial curve], COC(=O)[C@H](Cc1ccccc1)NC(=O)c1cc(COc2c(F)cccc2F)on1 5.01 µM [activator, single point], C/C(=N\Nc1ccc([N+](=O)[O-])cc1)c1ccc(N)cc1 2.51 µM [activator, partial curve, poor fit], CC(C)Oc1ccc(C(=O)Nc2nnc(SCC(=O)N3CCOCC3)s2)cc1 0.316 µM [activator, partial curve], Cn1ncc2c(Nc3ccc4ccccc4c3)ncnc21 5.62 µM [activator, single point], Cc1nn(-c2ccccc2)cc1C(=S)Nc1ccccc1 5.62 µM [activator, single point], Cc1ccc(C(=O)NCCOc2ccc(Cl)cc2)cc1 3.98 µM [activator, single point], COc1ccc(C(=O)Cn2nnc(-c3cccs3)n2)cc1 3.55 µM [activator, single point], c1ccc(Nc2nc(-c3cccs3)cs2)nc1 5.62 µM [activator, single point], Cn1ncc([N+](=O)[O-])c1C(=O)Nc1ccc(-c2nc3ccccc3[nH]2)cc1 4.47 µM [activator, single point], COc1ccc(-c2nc(CS(=O)CC(=O)NC3CCC(C)CC3)c(C)o2)cc1OC (stereo not given) 1.78 µM [activator, partial curve], CC1CCC(NC(=O)c2cc3c(s2)CCCC3)CC1 (stereo not given) 3.55 µM [activator, partial curve], Cc1cc(NC(=O)/C=C/c2ccccc2Cl)n(-c2nc3ccccc3[nH]2)n1 2.24 µM [activator, partial curve], O=C(CSc1ccccc1)NC1CCCCCCC1 3.55 µM [activator, single point], COc1cccc(-c2nnc(SCC(=O)Nc3cc(C)on3)o2)c1 5.62 µM [activator, single point], Fc1ccc(N/N=C/c2ccncc2)c(F)c1 5.62 µM [activator, single point], O=c1c2c3c(sc2nc2n1CCCCC2)CCCC3 3.55 µM [activator, single point], COc1ccc(Nc2ccc([N+](=O)[O-])cn2)cc1 2.51 µM [activator, partial curve], CC(NC(=O)c1cc(COc2cccc(C(F)(F)F)c2)on1)c1nccs1 (stereo not given) 3.16 µM [activator, partial curve], CC(=O)Nc1ccc(C23CC4CC(CC(C4)C2)C3)cc1 5.62 µM [activator, single point], C=CCn1cccc(C(=O)Nc2ccc(OC)cc2)c1=O 2 µM [activator, partial curve], COc1ccc(-c2nnc(N(C)C(=O)c3ccno3)s2)cc1 3.55 µM [activator, partial curve], COc1ccccc1C(=O)Nc1nnc(-c2ccccc2)s1 6.31 µM [activator, single point], COc1cc(-c2ccccc2)nc(N)n1 2.24 µM [activator, partial curve], CC(C)(C)c1ccc(C(=S)N2CCN(c3ccccc3)CC2)cc1 1.26 µM [activator, single point], Cn1cccc1C(=O)NC1CCCCCC1 2.51 µM [activator, partial curve], CCCCCCOc1ccc(OC(=O)c2ccncc2)cc1 3.16 µM [activator, single point], CC(CC(=O)Nc1ccc2c(c1)OCCO2)c1ccccc1 (stereo not given) 3.16 µM [activator, partial curve], CC1=CCC(C(=O)O)C(C(=O)Nc2ccc(-c3nc4ccc(C)cc4s3)cc2)C1 (stereo not given) 1 µM [activator, partial curve], CCCc1nn(C)c(C(=O)Nc2ccc(C)c(C)c2)c1Cl 3.55 µM [activator, single point], CC1CCN(C(=O)COC(=O)c2ccc3c(c2)OCO3)CC1 2.24 µM [activator, partial curve], CCOc1ccc(N2Cc3ccccc3C2)cc1 4.47 µM [activator, partial curve], Cc1ccc(NC(=O)c2ccc(CSc3nnc(C)s3)cc2)c(C)c1 3.98 µM [activator, partial curve]

Potency, active:
O=C(CCC(=O)c1cccs1)c1cccs1 1.26 µM, Cc1c(-c2ccc(Br)cc2)nc2ccccn12 3.16 µM, O=C(c1ccc2oc(CCCc3ccccc3)nc2c1)N1CCCCC1CO (stereo not given) 4.47 µM, O=C(Nc1ccccc1)Nc1ccc2ccccc2c1 2.51 µM, COc1ccc(Nc2nccc(-c3cccc(N)c3)n2)cc1 1.78 µM, C=CCN(CC=C)c1cnn(-c2nc3ccccc3[nH]2)c(=O)c1Cl 2 µM, O=C(/C=C/c1cccs1)c1ccc(N2CCOCC2)cc1 3.55 µM, O=C(NCCc1ccccc1)c1noc2c1CCCCC2 2.51 µM, CCOc1ccc2nc(NC(=O)CCC(=O)c3cccs3)sc2c1 3.16 µM, COc1ccc(-c2cc(C(=O)N3CCCC3)no2)cc1 0.398 µM, COc1ccc(/C=N/Nc2ccc(C(=O)O)cc2)c(OC)c1OC 2.82 µM, c1ccc(CN=C2Nc3ccccc3CS2)nc1 2.51 µM, CC(C)N=C1NN=C(c2ccc(Cl)c(Cl)c2)CS1 1.41 µM, C(=C\c1nnc(-c2cccs2)o1)/c1ccccc1 2.51 µM, O=c1[nH]c2ccccc2nc1/C=C(\O)c1cccs1 3.98 µM, Cc1ccnc(NC(=O)c2ccc(OCC3CCCO3)cc2)c1 (stereo not given) 0.282 µM, O=C(c1ccc(Cl)cc1)c1cnc(Nc2ccccc2Cl)s1 1.78 µM

activation, inactive:
COc1ccc(-c2noc(CCC(=O)N(C)c3cccc(C)c3)n2)cc1 2.19%, Cc1cc(C(=O)CSc2nnnn2C)c(C)n1CCc1ccc(F)cc1 -11%, COc1ccc(N(C(C)=O)c2nc3ccccc3[nH]2)cc1 -3.47%, COc1cccc(C(O)c2cnc(C(C)C)n2C)c1 (stereo not given) 0.348%, CCc1ccccc1NC(=O)Nc1ccc(F)cc1 0.128%, Cc1onc(-c2ccccc2Cl)c1C(=O)NC(=S)NCc1cccnc1 -2.64%, CCNC(=S)/N=C(/Nc1ccc(OC)cc1)Nc1nc(C)cc(C)n1 2.74%, Cn1c(N)c(C(=O)COC(=O)c2ccc(OC(F)F)cc2)c(=O)n(C)c1=O -2.39%, CCn1c(SCc2cccc(F)c2)nnc1-c1cccnc1 0.965%, COc1ccc(-c2noc(C3CCCN(C(=O)c4ccc(C)cc4)C3)n2)cc1 (stereo not given) -0.509%, C/C=C/CSc1nc2c(c(=O)[nH]c(=O)n2C)n1Cc1ccc(C)cc1 0.318%, COc1ccc(-c2nn3c(=O)c(C)nnc3s2)cc1 -4.98%, C=CCOc1ccc(C2NC(=S)NC3=C2CCc2ccccc23)cc1 (stereo not given) 1.29%, O=S(=O)(Cc1ccccc1)Nc1ccc(S(=O)(=O)N2CCCC2)cc1 -0.0651%, Cc1ccc(-c2cc(=O)c3ccccc3[nH]2)cc1 19.5%, CC1CN(c2cc(-c3ccccc3)c3ccccc3n2)CC(C)O1 (stereo not given) 0.57%, Cc1ccc(-n2nc3c(=O)n(CC(=O)NCCC4=CCCCC4)nc(C)c3c2C)cc1 -8.58%, O=C(CNC(=O)c1ccc(Cl)c([N+](=O)[O-])c1)OC1CCCCC1=O (stereo not given) 0.415%
